Experimental findings from the RNAGym collection of RNA variant scans (doi:10.1093/nar/gkz1192) are described below.

The source gives no read counts; variants with many changes may rest on few reads.

B1: CPEB3 Ribozyme (parent)
chain: UAACAGGGGGCCACAGCAGAAGCGUUCACGUCGCAGCCCCUGUCAGAUUCUGGUGAAUCUGCGAAUUCUGCUGUAUAUCUC

Variants of B1 are the subject of the data set. Put plainly: self-cleavage, relative activity (ratio to wild type); higher = more cleavage; in vitro, sequencing. The method, boiled down: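 Relative activity compares each variant's cleaved/total read fraction with that of the unmutated ribozyme. To get these fractions, barcoded CPEB3 ribozyme libraries from rounds of error-prone PCR were transcribed with T7 RNA polymerase for 5 hours at 37°C and then given 15 min of DNase I treatment before EDTA was added. The RNAs were reverse transcribed with template switching and sequenced on Illumina, and DNA sequencing linked barcodes to variants. A minimum of 5 reads applied, and three batches were averaged.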
As for A20U U48C U51A U60A, the self-cleavage was found to be 0.08. For A20U U43A U78C the value was 0.22.

Consider A21G G36U A57G U60A, for which the self-cleavage amounted to 0.1. For A21C U31C A35U U80C the value was 0.24; for A21G C38A A56G C62U, 0.11. Take A21G A56U U60C U72A: the self-cleavage came out at 0.08. For A21C A56G U69A the value was 0.14; for A20U U49C C71A, 0.12; for A21G A28U G61A, 0.3. As for A21G C44A A45G, the self-cleavage came to 0.21. For A21G A35G U76C the value was 1.07; for A21G A64U U76A, 0.16. For A21G A28U A45G, the self-cleavage was 0.12. In the case of A21G A45U U58C U60C U69A, the self-cleavage was 0.15.

Regarding A20U U26C U31A, the self-cleavage was determined as 0.14. As for A21G C44A A45G U48C, the self-cleavage was 0.23. As for A21G A57U U74A, the self-cleavage stood at 0.81. A21G C29U C62G A64G: the self-cleavage was 0.07. For A21G A75U U76A A77G U78A the value was 0.88; for A21G A28G A65G, 0.12. As for A21C A28G U43C, the figure is 0.16; as for A20U U72C U78C, 0.26. For A21G A56G U69C the value was 0.11. Consider A21G A47G U51C A65U C68G G73A C79A, for which the self-cleavage is 0.05. Turning to A21G A28G A45U, the self-cleavage is 0.18. As for A21G G22C U43C, the figure is 0.06; as for A21G G33U U49C U60C, 0.1. As for A21G C40A U66C C79A, the figure is 0.07; as for A21G A64U U78C, 0.2; as for A21G G24A U43C U54A C79U, 0.05. Consider A21G A35U C62G U76C, for which the self-cleavage was found to be 0.14. Regarding A21G A35U G63U U66C U80G, the self-cleavage was 0.55. For A21G A28G G30A A75U, the self-cleavage was 0.05. Regarding A21G C32A U43C U54C, the self-cleavage was 0.15. For A20U U43C U69C the value was 0.16; for A21G A28G U51C U80A, 0.36. For A21G A28U U72C the value was 0.36. In the case of A21G G22U G33C G55U U72A, the self-cleavage turned out to be 0.06. As for A21G C62U U76C, the figure is 0.11; as for A21G A35U U41G U51A U60G, 0.05; as for A20U U31C A64U A65G U74C, 0.15. In the case of A21G G33U U54C U66C U78C, the self-cleavage stood at 0.07. For A21G A56G G63A A75U, the self-cleavage amounted to 0.3. For A21G G33U U43C U69A C71G U80G C81A the value was 0.04.

For A21G A35G C37A, the self-cleavage turned out to be 0.64. Regarding A20U U31A A64G U78C U80C, the self-cleavage was 0.05. As for A21G A56G U69A U80A, the self-cleavage was determined as 0.13. As for A20U U43A G63U, the figure is 0.38; as for A21G A57G U76A, 0.59; as for A21G A28U A35G U49C U54C, 0.24. For A21G A45G A64U U80C the value was 0.12; for A21C A28C U31A, 0.07. As for A21G A28G U41C U69A U72C, the figure is 0.06; as for A21G A47G U51C, 0.24. As to A21G A35G A64G, the self-cleavage came out at 1.02. Take A20U U26C A28G C40A U58A U78C: the self-cleavage turned out to be 0.31.

For the variant A21C U25C U31A U58G, the self-cleavage amounted to 0.18.

On to A21G A65G U69A, for which the self-cleavage stood at 0.09. For A21G G33A U51C U60C U76A the value was 0.05. As for A21G A28G A45U U51A, the figure is 0.25; as for A21G A28U A47G, 0.36; as for A21G A28U A45C U54C U60C, 0.06. For A20U U60C C68U U76C the value was 0.12; for A21G A35G U69A, 0.52. Turning to A21C U54C U66A U69C U80A, the self-cleavage was 0.12. For A21G C32G A47C U54G U69A U80G the value was 0.1; for A21G A45G A56G, 0.32. For A21G G33A A47G U48C U51A A57G the value was 0.23. Consider A21G C39U G42A U43C, for which the self-cleavage came to 0.08. As for A20U U31A U41A A45U U51A A65G A77C, the figure is 0.05; as for A21C U51A U78A, 0.16. For A21G A35G U41C U48C U74A, the self-cleavage was 1.12.

Consider A20U U26C C38G U41C A45C G61A, for which the self-cleavage amounted to 0.06. For A21G A28U G30A U48C the value was 0.06; for A21G A47U A65G, 0.16. For A21C U41C U54C U67C the value was 0.15; for A20U U60C A64C, 0.09.

In the case of A21G A45G A57G U69C, the self-cleavage amounted to 0.11. For A21G C32A U41C C81U the value was 0.06; for A21G G24A A28G U31C A45G, 0.24; for A21G G24A U26C U69A, 0.11.

A21G C37U U41A G52C A64U: the self-cleavage turned out to be 0.12. As for A20U U31C U41C A64G U72C U80A, the figure is 0.09. With A21G A35U G61A, the self-cleavage came out at 0.13.
